Data as given in PubChem BioAssay AID651820 (National Center for Advancing Translational Sciences (NCATS), 2012).
Screen size: about 340,000 compounds; about 12,000 (3.5%) were called active. Inconclusive results, whose numbers are uncertain, are shown with a selection of clear calls. Calls follow the shape of the dose curve; as a rule, active = well fitted inhibition curve with a large enough effect; inconclusive = small, poorly fitted or top-dose-only effect, or another doubt; inactive = no such curve, though single readings can be large or run the other way. No potency is given beside an inconclusive call; the fits are too rough.

Assay: qHTS Assay for Inhibitors of Hepatitis C Virus (HCV)
Conditions: Huh7.5.1 HCVcc-Cre (HCVcc is cell-culture hepatitis C virus) infection, luciferase reporter, 44 h; activity change, negative = inhibition: at 41.8 µM (top of the series)
How it was run: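 HCVcc-Cre virus at an moi near 0.5 was added right after compound to cells cultured 4 h from seeding (1,000 cells/well). Luciferase activity was determined 44 h later, 15 min after substrate addition at RT.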
% is scaled to controls: 0 for no effect and ±100 for the full control effect; potency is read from the fitted curve at half-maximal effect; tags tell the direction and shape of the fitted curve.

Row | SMILES | Potency | activity change, negative = inhibition
1 | COc1ccc(S(=O)(=O)N2CCOC23CCN(S(=O)(=O)c2cc(C)ccc2OC)CC3)cc1 | inactive | –
2 | CC(C)c1cc(C(=O)N/N=C/c2ccoc2)c(O)c(C(C)C)c1 | inconclusive [inhibitor, full curve, poor fit] | –
3 | CC1(C)Cc2c(C#N)c(NCCO)nc(-c3ccco3)c2CO1 | – | inconclusive: -34.4% [inhibitor]
4 | CC(C)C(=O)Nc1cccc(C(=O)Nc2nnc(C(C)C)s2)c1 | inconclusive [inhibitor, partial curve] | –
5 | O=C(Nc1ccc(N2CCOCC2)c(S(=O)(=O)Nc2ccccc2Cl)c1)c1ccccc1 | inconclusive [inhibitor, single point] | –
6 | Nc1nc(N)c(N=Nc2ccccc2)c(=O)[nH]1 | inactive | –
7 | Cc1cccc(CN2C(=O)/C(=C\c3ccc(C(=O)NCCN4CCOCC4)cc3)Sc3ccccc32)c1 | inconclusive [inhibitor, single point] | –
8 | CCNC(=O)CN(c1ccc(C)cc1)S(=O)(=O)c1ccccc1 | inactive | –
9 | CCS(=O)(=O)Nc1ccc(C2=NN(C(=O)c3ccco3)C(c3ccc(C)cc3)C2)cc1 (stereo unspecified) | inconclusive [inhibitor, single point] | –
10 | Clc1ccc2[nH]c3c(c2c1)CCc1cn[nH]c1-3 | inconclusive [inhibitor, single point] | –
11 | COc1ccc(-c2c(C)nn3c(NC4CCCC4)cc(C)nc23)cc1OC | active: 10 µM | –
12 | CC(C)Cc1ccc(C(C)CC2=CCC(CN(C)C)C2=O)cc1 (stereo unspecified) | inconclusive [inhibitor, single point] | –
13 | CC(=O)c1ccc(OC(C)C(=O)Nc2cccc(S(=O)(=O)NCc3ccco3)c2)cc1 (stereo unspecified) | inconclusive [inhibitor, single point] | –
14 | Cc1ccc(C(=O)NC(=S)Nc2ccccc2C(F)(F)F)cc1C | inconclusive [inhibitor, single point] | –
15 | CCOC(=O)c1[nH]c(C)c(C(=O)N2CCc3ccccc32)c1C | inconclusive [inhibitor, full curve, poor fit] | –
16 | CSc1ccc(CN(C)C(=O)C23CC4CC(CC(Cl)(C4)C2)C3)cc1 | inactive | –
17 | N#Cc1c(/N=C/c2ccccc2)oc(-c2ccccc2)c1-c1ccccc1 | inconclusive [inhibitor, single point] | –
18 | Cc1ccccc1NC(=O)NCc1ccccn1 | inactive | –
19 | COc1cc(C(=O)Oc2cccc(C)c2)cc(OC)c1OC | inconclusive [inhibitor, single point] | –
20 | O=C(COC(=O)c1n[nH]c(=O)c2ccccc12)Nc1ccccc1F | inactive | –
21 | Nc1nc(NC(=O)CCCC(=O)O)nn1-c1ccccc1 | inactive | –
22 | O=Cc1c(N2CCC3(CC2)OCCO3)nc2ccccn2c1=O | inactive | –
23 | O=C(CSc1ccc2ccccc2c1)NC1CCCc2ccccc21 (stereo unspecified) | inactive | –

Row | SMILES | Potency | activity change, negative = inhibition
24 | Cc1nnn(-c2nonc2N)c1C(=O)N/N=C/c1cccc2ccccc12 | inconclusive [inhibitor, full curve] | –
25 | CCOc1ccccc1NC(=O)CSCC(=O)Nc1ccccc1 | inconclusive [inhibitor, partial curve] | –
26 | CC(=O)N1CCN(c2ccc(NC(=O)C(C)Oc3ccc(Cl)cc3Cl)cc2)CC1 (stereo unspecified) | inactive | –
27 | O=C(CSc1nnc(C2CC2)n1C1CC1)Nc1cccc(Br)c1 | inactive | –
28 | CSc1ccc(-c2nnn(Cc3ccc(C)cc3)n2)cc1 | inactive | –
29 | CC(C)(C)S(=O)(=O)c1cnc(N2CCCCC2)nc1N | inactive | –
30 | Cc1cc(C)nc(N2CCN(c3ncnc4c3cnn4Cc3ccc(Cl)cc3Cl)CC2)n1 | inconclusive [inhibitor, partial curve] | –
31 | Cc1cc(OCC(=O)NCc2ccccn2)c2c(C)c(C)c(=O)oc2c1 | inconclusive [inhibitor, full curve, poor fit] | –
32 | Cc1ccnc2ccc(-c3nc4ccccc4o3)cc12 | inconclusive [inhibitor, full curve, poor fit] | –
33 | N#CCc1nn(-c2ccccc2)c2ncnc(N)c12 | inconclusive [inhibitor, single point] | –
34 | Cc1ccc(C2C(/C=C3/SC(=S)NC3=O)=C(c3cccs3)Oc3ccccc32)cc1 (stereo unspecified) | inconclusive [inhibitor, single point] | –
35 | O=S(=O)(c1ccc(N2CCCC2c2nc3ccccc3s2)nc1)N1CCOCC1 (stereo unspecified) | inconclusive [inhibitor, partial curve] | –
36 | COc1ccc(N(CC(=O)N/N=C/c2ccc(-c3ccc([N+](=O)[O-])cc3)o2)S(=O)(=O)c2ccc(C)cc2)cc1Cl | inactive | –
37 | Oc1ccc2ccccc2c1CNc1ccc2ccccc2c1 | – | inconclusive: -45.6% [inhibitor]
38 | O=C(O)c1ccc(N/N=C/C2=C(N3CCOCC3)C(=C\c3ccccc3)/CC2)cc1 | inactive | –
39 | O=[N+]([O-])c1cc(S(=O)(=O)N2CCCC2)ccc1OCCOc1ccccc1 | inconclusive [inhibitor, partial curve, poor fit] | –
40 | Cc1sc(NC(=O)CSc2nnc3scc(-c4ccccc4)n23)c(C#N)c1C | inconclusive [inhibitor, full curve, poor fit] | –
41 | CC(=O)Nc1ccc(OC(=O)c2cc3cc(Br)ccc3oc2=O)cc1 | inactive | –
42 | Cc1ccc2c(c1)C(=O)N1[C@H]3c4cc(Cl)ccc4OC[C@@H]3[C@H](c3ccccc3)[C@]1(C)C(=O)N2 | inconclusive [inhibitor, partial curve] | –
43 | Cc1ccc2c(c1C)-c1c(ccc(C)c1C)C(=O)C2=O | active: 11.2 µM | –
44 | O=S(=O)(CC(CN1CCCC1)N1CCCC1)c1ccc2ccccc2c1 (stereo unspecified) | active: 10 µM | –
45 | COC(=O)c1cc(S(=O)(=O)N(C)c2ccc(C)c(C)c2)c[nH]1 | inconclusive [inhibitor, single point] | –
46 | COc1ccc(C)cc1NC(=O)C1CCCN1S(=O)(=O)c1ccccc1F (stereo unspecified) | inconclusive [inhibitor, partial curve] | –
